Reference: patent CN117843802A (BEILAI PHARMACEUTICAL CO LTD, dated 2024)

Target: T1, Human IL-17A重组蛋白 (IL-17A-His) (Human, UniProt Q16552 24-155, biotinylated (Biotin-IL-17A-His) in the ELISA of paragraph 259; site not stated)
T1 construct: Recombinant antigen expressed in E. coli BL21 from pET28a, purified on a nickel column; also called IL-17A抗原蛋白; IL-17抗原
T1 sequence: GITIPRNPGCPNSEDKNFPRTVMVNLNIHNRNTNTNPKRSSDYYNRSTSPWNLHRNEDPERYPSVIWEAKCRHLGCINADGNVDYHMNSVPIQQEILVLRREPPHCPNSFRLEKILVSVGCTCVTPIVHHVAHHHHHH
Experiment: ELISA: antibody coated at 2 ug/mL, Biotin-IL-17A-His titrated from 10 ug/mL (5-fold, 7 points), HRP-Streptavidin

- EC50: 1.47 mg/L
B1: 双价单域抗体(1-C11+1-G12) (Fc fusion)
chain: DVQLVESGGGLVQPGGSLRLSCAASESLLRLYAMGWYRQLPGQEREWVAIHTTSDTTNYRDSVKGRFTLSRDVATNTIYLQMTSLKPEDTAVYYCHVTSMRDSQNYWGQGTQVTVSSGGGGSGGGGSGGGGSEVQLVESGGGLVQPGGSLRLSCVAWGFSFSIYSVNWYRQAPGKERELVAGITKGGLKDYADSVKGRFTISRDNAKNAVYLRMNMLKPEDTAVYYCNAGRENGYWGQGTQVAVST[human IgG1 Fc not spelt out]
notes: also called 二价单域抗体; 串联抗体
